The chains are these.
B1: Caulobacter ParB omega fusion; a variant is named by its letters at X, in order, B8GW30 (parent)
chain: MESVVVGEPGMSEGRRGLGRGLSALLGEVDAAPAQAPGEQLGGSREAPIEILQRNPDQPRRTFREEDLEDLSNSIREKGVLQPILVRPSPDTAGEYQIVAGERAWRAAQRAGLKTVPIMVRELDDLAVLEIGIIENVQRADLNVLEEALSYKVLMEKFERTQENIAQTIGKSXSHVANXMRLLXLPDEVQSYLVSGELTAXHARAIAAAADPVALAKQIIEGGLSVRETEALARKAPNLSAGKSKGGRPPRVKDTDTQALESDLSSVLGLDVSIDHRGSTGTLTITYATLEQLDDLCNRLTRGI

The full ranking holds about 81,000 sequences; the median of “one-hybrid fitness for binding NBS DNA” is about -0.1, and the highest 2% start at about 0.36. The list shows a part of the results. A value given as a limit tells only on which side of the number the result lay.

The values below come from a collection of fitness landscapes (doi:10.1016/j.celrep.2020.107928).

The test covers variants of B1. In words: one-hybrid fitness for binding NBS DNA (the Noc-binding site; scaled: cognate 1, non-cognate 0); higher = stronger binding. The conditions noted are these: with NBS DNA site. An outline of the steps: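 On M9-minus-histidine containing 0.1 mM IPTG and 5 mM 3-AT, E. coli USO cells with a HIS3 reporter, site 19 bp from the promoter, grew 48 hours at 37°C to select Caulobacter ParB libraries randomised at four specificity codons. Plasmids from before and after were Illumina-sequenced, with three replicate libraries pooled and variants under 10 reads left out. Fitness is the log change in variant-to-wild-type read ratio, rescaled against cognate and non-cognate.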
As for VTTD, the “one-hybrid fitness for binding NBS DNA” value is ≤ 0.2.
Regarding VEFS, the “one-hybrid fitness for binding NBS DNA” value was ≤ 0.2.
Turning to QDPV, the “one-hybrid fitness for binding NBS DNA” value is ≤ 0.2.
Turning to GKCR, the “one-hybrid fitness for binding NBS DNA” value is ≤ 0.2.
The same measure for MKDR: ≤ 0.2; for EPIK: ≤ 0.2; for GWRR: ≤ 0.2.
Turning to SEKN, the “one-hybrid fitness for binding NBS DNA” value is ≤ 0.2.
For PKQN, the “one-hybrid fitness for binding NBS DNA” value was ≤ 0.2.
As to RVSI, the “one-hybrid fitness for binding NBS DNA” value was ≤ 0.2.
In the case of AENG, the “one-hybrid fitness for binding NBS DNA” value is ≤ 0.2.
VFST: the “one-hybrid fitness for binding NBS DNA” value is ≤ 0.2.
LAHM: the “one-hybrid fitness for binding NBS DNA” value is ≤ 0.2.
With LFAG, the “one-hybrid fitness for binding NBS DNA” value is ≤ 0.2.
Consider WTCM, for which the “one-hybrid fitness for binding NBS DNA” value is ≤ 0.2.
As to ESNF, the “one-hybrid fitness for binding NBS DNA” value is ≤ 0.2.
In the case of PINQ, the “one-hybrid fitness for binding NBS DNA” value was ≤ 0.2.
On to KKTV, for which the “one-hybrid fitness for binding NBS DNA” value was ≤ 0.2.
Next, ATEK: ≤ 0.2; QRRM: 0.589.
For VEFC, the “one-hybrid fitness for binding NBS DNA” value was ≤ 0.2.
Consider TQYR, for which the “one-hybrid fitness for binding NBS DNA” value is ≤ 0.2.
On to ARTH, for which the “one-hybrid fitness for binding NBS DNA” value was ≤ 0.2.
As to MIGT, the “one-hybrid fitness for binding NBS DNA” value is ≤ 0.2.
As to TYKE, the “one-hybrid fitness for binding NBS DNA” value is ≤ 0.2.
Take GPEA: the “one-hybrid fitness for binding NBS DNA” value is ≤ 0.2.
On to VAMT, for which the “one-hybrid fitness for binding NBS DNA” value is ≤ 0.2.
With QAQR, the “one-hybrid fitness for binding NBS DNA” value is 0.506.
For RDAR, the “one-hybrid fitness for binding NBS DNA” value was ≤ 0.2.
Consider RYSH, for which the “one-hybrid fitness for binding NBS DNA” value was ≤ 0.2.
Turning to QCRH, the “one-hybrid fitness for binding NBS DNA” value was found to be 0.693.
Turning to IVFC, the “one-hybrid fitness for binding NBS DNA” value was ≤ 0.2.
As to VQNQ, the “one-hybrid fitness for binding NBS DNA” value was ≤ 0.2.
QHQG: the “one-hybrid fitness for binding NBS DNA” value is ≤ 0.2.
For NPQS, the “one-hybrid fitness for binding NBS DNA” value was ≤ 0.2.
The same measure for QCSH: 0.272.
Next, HAET: ≤ 0.2.
For the variant EDRG, the “one-hybrid fitness for binding NBS DNA” value was ≤ 0.2.
With MGEV, the “one-hybrid fitness for binding NBS DNA” value was ≤ 0.2.
On to ATYW, for which the “one-hybrid fitness for binding NBS DNA” value was ≤ 0.2.
On to DRFR, for which the “one-hybrid fitness for binding NBS DNA” value was ≤ 0.2.
As to MPLG, the “one-hybrid fitness for binding NBS DNA” value was ≤ 0.2.
As to AGVV, the “one-hybrid fitness for binding NBS DNA” value was ≤ 0.2.
Regarding LTIT, the “one-hybrid fitness for binding NBS DNA” value is ≤ 0.2.
Consider RRHA, for which the “one-hybrid fitness for binding NBS DNA” value amounted to 0.66.
Take DDAC: the “one-hybrid fitness for binding NBS DNA” value was ≤ 0.2.
As to CLAS, the “one-hybrid fitness for binding NBS DNA” value was ≤ 0.2.
Regarding CCTG, the “one-hybrid fitness for binding NBS DNA” value is ≤ 0.2.
Turning to TCSR, the “one-hybrid fitness for binding NBS DNA” value was ≤ 0.2.
As for IHQF, the “one-hybrid fitness for binding NBS DNA” value is ≤ 0.2.
With KMMG, the “one-hybrid fitness for binding NBS DNA” value is ≤ 0.2.
Next, IHGS: ≤ 0.2; ENFT: ≤ 0.2; TFAG: ≤ 0.2.
Regarding RKTV, the “one-hybrid fitness for binding NBS DNA” value was ≤ 0.2.
Turning to RRMC, the “one-hybrid fitness for binding NBS DNA” value was determined as 0.288.
For ETCG, the “one-hybrid fitness for binding NBS DNA” value was ≤ 0.2.
Take FTKY: the “one-hybrid fitness for binding NBS DNA” value was ≤ 0.2.
QNRG: the “one-hybrid fitness for binding NBS DNA” value is ≤ 0.2.
RLDK: the “one-hybrid fitness for binding NBS DNA” value is ≤ 0.2.
With IGMN, the “one-hybrid fitness for binding NBS DNA” value was ≤ 0.2.
The same measure for VHAV: ≤ 0.2; for RETM: ≤ 0.2; for LNTG: ≤ 0.2.
Next, CEYL: ≤ 0.2; PNDS: ≤ 0.2.
The same measure for RWMT: ≤ 0.2; for NCRC: ≤ 0.2; for PWPV: ≤ 0.2.
Turning to YGCS, the “one-hybrid fitness for binding NBS DNA” value was ≤ 0.2.
QLVE: the “one-hybrid fitness for binding NBS DNA” value was ≤ 0.2.
Regarding MTAG, the “one-hybrid fitness for binding NBS DNA” value was ≤ 0.2.
TPDD: the “one-hybrid fitness for binding NBS DNA” value was ≤ 0.2.
The same measure for HDKF: ≤ 0.2; for TVLP: ≤ 0.2.
Consider MYTK, for which the “one-hybrid fitness for binding NBS DNA” value was ≤ 0.2.
Consider ILTY, for which the “one-hybrid fitness for binding NBS DNA” value was ≤ 0.2.
The same measure for LHQC: ≤ 0.2; for LAYR: ≤ 0.2; for QRCK: 0.388.
AATY: the “one-hybrid fitness for binding NBS DNA” value was ≤ 0.2.
Turning to PALA, the “one-hybrid fitness for binding NBS DNA” value was ≤ 0.2.
As to DRHV, the “one-hybrid fitness for binding NBS DNA” value is ≤ 0.2.
For the variant IAHP, the “one-hybrid fitness for binding NBS DNA” value was ≤ 0.2.
Take STCG: the “one-hybrid fitness for binding NBS DNA” value is ≤ 0.2.
As for PECE, the “one-hybrid fitness for binding NBS DNA” value is ≤ 0.2.
Next, YCTR: ≤ 0.2; QPYT: ≤ 0.2.
As for QIPG, the “one-hybrid fitness for binding NBS DNA” value was ≤ 0.2.
Next, HCHP: ≤ 0.2; TPHI: ≤ 0.2; DFHR: ≤ 0.2.
Consider SMNS, for which the “one-hybrid fitness for binding NBS DNA” value is ≤ 0.2.
Turning to FFAS, the “one-hybrid fitness for binding NBS DNA” value is ≤ 0.2.
On to GCGR, for which the “one-hybrid fitness for binding NBS DNA” value is ≤ 0.2.
In the case of GAHL, the “one-hybrid fitness for binding NBS DNA” value is ≤ 0.2.
In the case of ILTD, the “one-hybrid fitness for binding NBS DNA” value was ≤ 0.2.
With AFAV, the “one-hybrid fitness for binding NBS DNA” value was ≤ 0.2.
Regarding CIKR, the “one-hybrid fitness for binding NBS DNA” value was ≤ 0.2.
Take LLET: the “one-hybrid fitness for binding NBS DNA” value is ≤ 0.2.
In the case of LFHV, the “one-hybrid fitness for binding NBS DNA” value is ≤ 0.2.
As for KPLV, the “one-hybrid fitness for binding NBS DNA” value was ≤ 0.2.
Take SLAC: the “one-hybrid fitness for binding NBS DNA” value was ≤ 0.2.
Take ECMR: the “one-hybrid fitness for binding NBS DNA” value was ≤ 0.2.
Turning to EPQD, the “one-hybrid fitness for binding NBS DNA” value was ≤ 0.2.
With WAKS, the “one-hybrid fitness for binding NBS DNA” value was ≤ 0.2.
The same measure for LDRW: ≤ 0.2; for CSPY: ≤ 0.2.
In the case of PVKW, the “one-hybrid fitness for binding NBS DNA” value is ≤ 0.2.
ALEI: the “one-hybrid fitness for binding NBS DNA” value is ≤ 0.2.
As to QFWS, the “one-hybrid fitness for binding NBS DNA” value is ≤ 0.2.
As for SRGW, the “one-hybrid fitness for binding NBS DNA” value was ≤ 0.2.
Next, EERV: ≤ 0.2; NTRL: ≤ 0.2.
As for YYRG, the “one-hybrid fitness for binding NBS DNA” value is ≤ 0.2.
With TFDC, the “one-hybrid fitness for binding NBS DNA” value was ≤ 0.2.
Take LNMS: the “one-hybrid fitness for binding NBS DNA” value was ≤ 0.2.
The same measure for PHRT: ≤ 0.2; for MVRM: ≤ 0.2; for TFPV: ≤ 0.2.
As for TTAV, the “one-hybrid fitness for binding NBS DNA” value was ≤ 0.2.
For MSEL, the “one-hybrid fitness for binding NBS DNA” value was ≤ 0.2.
For the variant REDS, the “one-hybrid fitness for binding NBS DNA” value was ≤ 0.2.
Next, DMKP: ≤ 0.2; AWVP: ≤ 0.2.
Next, NEQG: ≤ 0.2; RDYF: ≤ 0.2; TRQY: ≤ 0.2.
With PVTF, the “one-hybrid fitness for binding NBS DNA” value is ≤ 0.2.
On to QLMV, for which the “one-hybrid fitness for binding NBS DNA” value is ≤ 0.2.
With RMYN, the “one-hybrid fitness for binding NBS DNA” value was ≤ 0.2.
As for QCCV, the “one-hybrid fitness for binding NBS DNA” value was ≤ 0.2.
Next, LQTQ: ≤ 0.2; VDTV: ≤ 0.2; QSLI: ≤ 0.2.
As to RKWK, the “one-hybrid fitness for binding NBS DNA” value is ≤ 0.2.
MNTG: the “one-hybrid fitness for binding NBS DNA” value was ≤ 0.2.
For the variant QNQI, the “one-hybrid fitness for binding NBS DNA” value was ≤ 0.2.
GSGI: the “one-hybrid fitness for binding NBS DNA” value was ≤ 0.2.
For the variant LNGW, the “one-hybrid fitness for binding NBS DNA” value is ≤ 0.2.
The same measure for LTAA: ≤ 0.2; for IPYA: ≤ 0.2.
As for FSSI, the “one-hybrid fitness for binding NBS DNA” value is ≤ 0.2.
As for QTEK, the “one-hybrid fitness for binding NBS DNA” value is ≤ 0.2.
In the case of SNRC, the “one-hybrid fitness for binding NBS DNA” value was ≤ 0.2.
Take ALHI: the “one-hybrid fitness for binding NBS DNA” value was ≤ 0.2.
As to SMNC, the “one-hybrid fitness for binding NBS DNA” value was ≤ 0.2.
The same measure for TQGS: ≤ 0.2; for QPIP: ≤ 0.2; for RTHI: ≤ 0.2.
As for IYPF, the “one-hybrid fitness for binding NBS DNA” value is ≤ 0.2.
Turning to ERCS, the “one-hybrid fitness for binding NBS DNA” value is ≤ 0.2.
Next, NWRN: ≤ 0.2.
